Source: PubChem BioAssay AID1468 (National Center for Advancing Translational Sciences (NCATS), 2008)
In all, about 280,000 compounds went through this assay and about 1,100 (0.39%) were called active. The shares of active, inactive and inconclusive entries below differ from those in the screen. Calls follow the shape of the dose curve; as a rule, active = well fitted inhibition curve with a large enough effect; inconclusive = small, poorly fitted or top-dose-only effect, or effect the other way; inactive = flat fitted curve, though single readings scatter. No potency is given beside an inconclusive call; the fits are too rough.

Molecular target: Microtubule-associated protein tau (Homo sapiens) (UniProt P10636)
Assay: qHTS for Inhibitors of Tau Fibril Formation, Fluorescence Polarization; also: nearly all actives have a fitted effect of over 55% in size
Conditions: K18 P301L tau heparin fibrillization, Alexa594 FP, 6 h; series mostly up to 57.7 µM; activity, negative = inhibition: at the top concentration
Procedure, shortened: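 Steps: dispense K18 P301L tau (15 uM plus 0.24 uM Alexa 594 tracer, final) in pH 7 sodium acetate; add compound; add heparin (20 uM final); incubate 6 hr, 37 C; add ThT (30 uM final); after 1 hr ambient, read FP.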
% is scaled to controls: 0 for no effect and ±100 for the full control effect; potency is read from the fitted curve at half-maximal effect; tags tell the direction and shape of the fitted curve.

Sequence of UniProt P10636 (P10636 whole entry, looked up): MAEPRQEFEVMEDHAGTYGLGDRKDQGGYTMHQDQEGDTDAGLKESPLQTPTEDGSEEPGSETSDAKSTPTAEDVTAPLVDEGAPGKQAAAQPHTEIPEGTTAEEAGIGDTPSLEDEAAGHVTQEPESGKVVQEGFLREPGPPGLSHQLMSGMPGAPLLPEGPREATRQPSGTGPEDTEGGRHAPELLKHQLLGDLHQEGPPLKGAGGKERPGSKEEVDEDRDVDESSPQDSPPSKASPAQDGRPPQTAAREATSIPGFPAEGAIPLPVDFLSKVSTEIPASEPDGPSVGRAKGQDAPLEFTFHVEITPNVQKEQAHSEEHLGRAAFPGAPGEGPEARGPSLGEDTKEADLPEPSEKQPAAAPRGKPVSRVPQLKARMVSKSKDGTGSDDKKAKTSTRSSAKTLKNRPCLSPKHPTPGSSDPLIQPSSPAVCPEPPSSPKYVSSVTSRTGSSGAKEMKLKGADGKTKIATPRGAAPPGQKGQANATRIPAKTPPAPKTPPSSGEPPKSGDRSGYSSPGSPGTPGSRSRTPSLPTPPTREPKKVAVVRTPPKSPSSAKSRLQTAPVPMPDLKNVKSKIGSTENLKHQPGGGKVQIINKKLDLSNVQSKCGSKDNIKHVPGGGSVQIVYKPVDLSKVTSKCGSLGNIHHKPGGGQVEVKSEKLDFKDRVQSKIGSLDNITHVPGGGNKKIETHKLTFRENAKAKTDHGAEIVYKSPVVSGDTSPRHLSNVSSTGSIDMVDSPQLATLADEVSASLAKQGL

| Compound | activity, negative = inhibition | Potency |
| --- | --- | --- |
| CCCn1nc(NC(=O)c2cccs2)c2cc3cc(OC)ccc3nc21 | inactive: 12.4% |  |
| CCCCN(CC)CCCNC(=O)C1CCN(c2nc3ccc(CC)cc3s2)CC1 |  | inconclusive [inhibitor, single point] |
| CN(C1CCCCC1)S(=O)(=O)c1ccc2[nH]c(=O)oc2c1 |  | inconclusive [inhibitor, single point] |
| O=C(CO/N=C/c1ccc(OC(F)F)cc1)NC1CCCCC1 | inactive: 1.35% |  |
| Cc1ccc(C(=O)Nc2nnc(NC(=S)Nc3ccccc3)s2)cc1 |  | inconclusive [inhibitor, partial curve] |
| CC(=O)Nc1nc(C)c(-c2csc(Nc3ccccn3)n2)s1 |  | inconclusive [activator, partial curve, poor fit] |
| O=C(NC1CC(=O)N(c2ccc(F)cc2)C1)C1CCCCC1 (stereo not drawn) |  | inconclusive [inhibitor, single point] |
| O=C(N/N=C/C(Cl)=C\c1ccccc1)c1cccs1 |  | inconclusive [inhibitor, partial curve] |
| O=C1c2ccccc2C(=O)N1CCCc1nc2ccccc2c(=O)n1-c1cccnc1 | inactive: -4.72% |  |
| COc1ccc(S(=O)(=O)N/N=C\c2ccc(OC)c(COc3ccc(C)cc3[N+](=O)[O-])c2)cc1 |  | inconclusive [inhibitor, partial curve] |
| CN1CCc2c(sc3ncn4nc(-c5ccccc5O)nc4c23)C1 |  | inconclusive [inhibitor, single point] |
| CCOC(=O)c1oc2ccccc2c1NC(=O)c1ccc(S(=O)(=O)N(C)C)cc1 |  | inconclusive [inhibitor, single point] |
| CN(C1CCCCC1)S(=O)(=O)c1ccc2c(c1)c(=O)c(C(=O)NCCN1CCCC1)cn2C | inactive: 5.15% |  |
| O=C(CCC1N=C2c3ccccc3N=C(SCc3ccccc3Cl)N2C1=O)N1CCN(c2ccccc2)CC1 (stereo not drawn) | inactive: -6.61% |  |
| Cc1cccc(OCCSc2nc3ccc(NC(=O)COc4ccccc4F)cc3s2)c1 |  | inconclusive [inhibitor, partial curve] |
| Cc1ccc(C)c(NC(=O)CSc2ncc3c(n2)-c2cc(Cl)ccc2N(Cc2ccccc2F)S3(=O)=O)c1 |  | inconclusive [inhibitor, partial curve] |
| O=C(c1cccs1)n1nc(NCc2ccccc2)nc1NCc1ccccc1 |  | inconclusive [inhibitor, partial curve] |
| O=C(CSc1nc(=O)[nH]c2c1CCC2)NCc1ccc(Cl)cc1 | inactive: -9.86% |  |
| O=C1c2ccccc2C(=O)N1/N=C/c1ccc(O)c(O)c1O |  | active: 6.31 µM |
| O=C1N=c2ccccc2=C1c1sc(=S)n(NC(=O)c2ccccc2)c1O |  | inconclusive [inhibitor, single point] |
| Cc1nnc(SCc2cc(=O)[nH]c(=S)[nH]2)s1 | inactive: -12.8% |  |
| CCCNC(=O)c1ccc2nc(-c3ccccc3)c(-c3ccccc3)nc2c1 | inactive: -9.43% |  |

| Compound | activity, negative = inhibition | Potency |
| --- | --- | --- |
| Cc1oc(/N=C/c2c(O)ccc3ccccc23)c(C#N)c1C |  | inconclusive [inhibitor, single point] |
| COc1cccc(/C=C/C(=O)OCC(=O)c2c[nH]c3ccccc23)c1OC |  | inconclusive [inhibitor, partial curve, poor fit] |
| Cc1cccc2cc(C#N)c(NCCCNS(=O)(=O)c3ccc(Cl)cc3)nc12 | inactive: -9.85% |  |
| CCOC(=O)c1c(N)sc(C(=O)Nc2ccccc2F)c1C |  | inconclusive [activator, single point] |
| COc1cc2ccc(=O)oc2c(O)c1O |  | inconclusive [inhibitor, partial curve] |
| O=C(Cn1cncn1)NCc1ccccc1Br |  | inconclusive [inhibitor, partial curve] |
| CCC(C)c1ccc(NC(=S)Nc2ccc(OC)c(OC)c2)cc1 (stereo not drawn) |  | inconclusive [activator, partial curve] |
| O=C(Cn1c(=O)n(-c2ccccc2)c(=O)c2c3c(sc21)CCCC3)Nc1ccccc1 |  | inconclusive [inhibitor, partial curve] |
| Cc1ccc(Oc2nc3ccccn3c(=O)c2/C=C(\C#N)c2nc3ccccc3s2)c(C)c1 |  | inconclusive [inhibitor, partial curve] |
| CCN(CC)c1cc(C)c2cc(NC(=O)/C=C/c3ccccc3OC(C)C)ccc2n1 |  | inconclusive [activator, partial curve] |
| CCNc1sc(C(=O)c2cccs2)c(N)c1-c1nc2ccccc2s1 | inactive: -4.44% |  |
| CCOC(=O)N1CCC(Nc2c(Nc3ccc(F)cc3)c(=O)c2=O)CC1 |  | inconclusive [activator, full curve] |
| CCCCc1nc(S(=O)(=O)c2ccc(Cl)cc2)c(N2CCOCC2)o1 |  | inconclusive [inhibitor, single point] |
| CCCCc1nc2ccccc2n1CC(=O)N(COCC)c1c(C)cccc1CC | inactive: 2.38% |  |
| Cc1ccc2oc(-c3ccc(Cl)c(NC(=O)c4ccc(OC(C)C)cc4)c3)nc2c1 |  | inconclusive [inhibitor, single point] |
| O=C1c2ccccc2C(=O)c2c(Nc3ccc(CCO)cc3)ccc(O)c21 |  | inconclusive [inhibitor, partial curve] |
| Cc1ccccc1-c1noc(-c2cc(-c3ccc(F)cc3)n[nH]2)n1 |  | inconclusive [inhibitor, partial curve] |
| COc1ccc(/C=C/C(=O)Nc2ccc3nc(N4CCCCC4)cc(C)c3c2)cc1OC |  | inconclusive [activator, partial curve] |
| COc1ccccc1Nc1ccc(N)cc1 |  | inconclusive [inhibitor, single point] |
| C=C(CCC(=O)c1ccccc1)C(=O)c1ccccc1 |  | inconclusive [activator, partial curve] |
| O=S(=O)(c1ccccc1)n1nc(-c2ccccc2)nc1NCc1ccco1 |  | inconclusive [inhibitor, partial curve] |
